Data from the supplement of paper PMC10369915.
The other results are listed elsewhere or left out. Cut-off read from the data, not from the text of the source: active = 3.2 or more and inactive = the rest. Only a few entries rise above the background.

B1: KRT17_Y98_L95P (peptide)
chain: DRPASYLDKVR
B2: KRTAP20-2_Y13_YF (peptide)
chain: FGGLRYGFGVL
B3: KRT14_Y415_R416P (peptide)
chain: QEIATYPRLLE
B4: KRT19_Y65_YF (peptide)
chain: AFGGGYGGVLT
B5: KRT3_Y511_E509K (peptide)
chain: LEGKEYRMSGE
B6: L1CAM_Y420_A415P (peptide)
chain: PNAYIYVVQLP
B7: KRT18_Y256_R261Q (peptide)
chain: DIRAQYDELAQ
B8: KRT16_Y417_L421P (peptide)
chain: QEIATYRRLPE
B9: L2HGDH_Y102_H98Y_YF (peptide)
chain: IFSGIYFKPES
B10: KRT76_Y361_A359T (peptide)
chain: EVRTQYEEIAQ
B11: KRT17_Y98_V102M (peptide)
chain: DRLASYLDKMR
B12: KRT6B_Y360_YF (peptide)
chain: WFQTKYEELQI
B13: KRT3_Y511 (peptide)
chain: LEGEEYRMSGE
B14: KRT33A_Y268_A270V (peptide)
chain: EQLQSYQVEII
B15: KRTAP20-2_Y13_Y13C_YF (peptide)
chain: FGGLRCGFGVL
B16: L1CAM_Y1229_S1224L (peptide)
chain: LFIGQYSGKKE
B17: L1CAM_Y418_A415P_YF (peptide)
chain: LLPNAYIFVVQ
B18: KRT19_Y61_YF (peptide)
chain: SSSGAYGGGFG

The binders below were run against SHP2 C-SH2 domain E139D (assay: enrichment score (SH2-bound / input frequency) (ratio); bacterial display of known human phosphotyrosine sites (pTyr-Var adds point mutants) read by sequencing; higher = stronger binding; tyrosines were phosphorylated by kinases first). Details: peptide library: pTyr-Var.
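Note: displayed peptides selected on beads carrying the immobilized SH2 domain, with library peptides lacking any tyrosine serving as negative controls.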

| Binder | enrichment score |
| --- | --- |
| B1 | inactive: 0.708 |
| B2 | inactive: 1.72 |
| B3 | inactive: 0.671 |
| B4 | inactive: 0.885 |
| B5 | inactive: 0.769 |
| B6 | inactive: 1.47 |
| B7 | inactive: 0.595 |
| B8 | inactive: 0.62 |
| B9 | inactive: 1.86 |
| B10 | inactive: 0.809 |
| B11 | inactive: 1.12 |
| B12 | inactive: 2.27 |
| B13 | inactive: 0.384 |
| B14 | inactive: 0.91 |
| B15 | inactive: 0.85 |
| B16 | inactive: 2.12 |
| B17 | inactive: 0.664 |
| B18 | inactive: 0.505 |

The binders below were run against SHP2 C-SH2 domain wild-type in the same assay as above. Details: peptide library: pTyr-Var.

| Binder | enrichment score |
| --- | --- |
| B1 | inactive: 0.719 |
| B2 | inactive: 1.67 |
| B3 | inactive: 0.538 |
| B4 | inactive: 0.678 |
| B5 | inactive: 0.532 |
| B6 | inactive: 1.76 |
| B7 | inactive: 0.681 |
| B8 | inactive: 0.503 |
| B9 | inactive: 1.66 |
| B10 | inactive: 0.866 |
| B11 | inactive: 0.916 |
| B12 | inactive: 1.9 |
| B13 | inactive: 0.535 |
| B14 | inactive: 0.881 |
| B15 | inactive: 1.2 |
| B16 | inactive: 1.91 |
| B17 | inactive: 0.846 |
| B18 | inactive: 0.624 |

These binders were tested against SHP2 N-SH2 domain L43F in the same assay as above. Details: peptide library: pTyr-Var.

| Binder | enrichment score |
| --- | --- |
| B1 | inactive: 0.617 |
| B2 | inactive: 1.37 |
| B3 | inactive: 0.651 |
| B4 | inactive: 0.783 |
| B5 | inactive: 0.71 |
| B6 | inactive: 1.59 |
| B7 | inactive: 0.648 |
| B8 | inactive: 0.435 |
| B9 | inactive: 2.9 |
| B10 | inactive: 0.731 |
| B11 | inactive: 0.961 |
| B12 | inactive: 3.2 |
| B13 | inactive: 0.493 |
| B14 | inactive: 0.848 |
| B15 | inactive: 0.835 |
| B16 | inactive: 1.82 |
| B17 | inactive: 0.747 |
| B18 | inactive: 0.549 |

The binders below were run against SHP2 N-SH2 domain T42A in the same assay as above. Details: peptide library: pTyr-Var.

| Binder | enrichment score |
| --- | --- |
| B1 | inactive: 0.729 |
| B2 | inactive: 1.43 |
| B3 | inactive: 0.596 |
| B4 | inactive: 0.787 |
| B5 | inactive: 0.59 |
| B6 | inactive: 1.48 |
| B7 | inactive: 0.532 |
| B8 | inactive: 0.5 |
| B9 | inactive: 1.69 |
| B10 | inactive: 1.7 |
| B11 | inactive: 0.971 |
| B12 | active: 13.4 |
| B13 | inactive: 0.508 |
| B14 | inactive: 0.718 |
| B15 | inactive: 0.728 |
| B16 | inactive: 1.16 |
| B17 | inactive: 0.665 |
| B18 | inactive: 0.528 |

What follows are binders tested against SHP2 N-SH2 domain T52S in the same assay as above. Details: peptide library: pTyr-Var.

| Binder | enrichment score |
| --- | --- |
| B1 | inactive: 0.838 |
| B2 | inactive: 1.6 |
| B3 | inactive: 0.576 |
| B4 | inactive: 0.761 |
| B5 | inactive: 0.674 |
| B6 | inactive: 1.64 |
| B7 | inactive: 0.573 |
| B8 | inactive: 0.563 |
| B9 | inactive: 2.84 |
| B10 | inactive: 0.795 |
| B11 | inactive: 0.993 |
| B12 | active: 4.03 |
| B13 | inactive: 0.415 |
| B14 | inactive: 0.689 |
| B15 | inactive: 0.986 |
| B16 | inactive: 1.67 |
| B17 | inactive: 0.494 |
| B18 | inactive: 0.51 |

Each binder was assayed against SHP2 N-SH2 domain wild-type in the same assay as above. Details: peptide library: pTyr-Var.

| Binder | enrichment score |
| --- | --- |
| B1 | inactive: 0.676 |
| B2 | inactive: 1.64 |
| B3 | inactive: 0.725 |
| B4 | inactive: 0.807 |
| B5 | inactive: 0.923 |
| B6 | inactive: 1.87 |
| B7 | inactive: 0.745 |
| B8 | inactive: 0.506 |
| B9 | inactive: 1.75 |
| B10 | inactive: 0.869 |
| B11 | inactive: 1.12 |
| B12 | inactive: 1.5 |
| B13 | inactive: 0.572 |
| B14 | inactive: 0.862 |
| B15 | inactive: 1.31 |
| B16 | inactive: 1.76 |
| B17 | inactive: 0.948 |
| B18 | inactive: 0.707 |
